{
  "sequences": {"note": "Chains of the proteins cited; added tags and fusions are not shown. Lines headed by an entry give the natural chain unless they say otherwise; changes in a name come on top. A line that says so, or that is headed by a name, gives the form on record, which may keep a tag or linker.", "Tm5NM-1-(His)6 (P06753-2, form named)": "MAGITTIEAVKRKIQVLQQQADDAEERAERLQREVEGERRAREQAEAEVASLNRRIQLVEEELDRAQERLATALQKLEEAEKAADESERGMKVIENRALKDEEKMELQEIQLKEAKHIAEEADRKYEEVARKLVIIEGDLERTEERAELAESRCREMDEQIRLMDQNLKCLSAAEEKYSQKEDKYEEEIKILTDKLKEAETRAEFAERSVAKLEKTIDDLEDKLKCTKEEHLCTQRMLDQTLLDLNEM"},
  "source": "paper PMC2538545",
  "key": {"[1]": {"biological_target": "endogenous Tm5NM-1 of COS-7 cells (African green monkey (endogenous in COS-7))", "assay": "co-IP; COS-7 cells transfected with TTC9A-flag; 500 ug lysate precipitated with anti-Tm5NM-1 antibody (Chemicon) and protein A/G plus-agarose, goat pre-immune serum as control; anti-flag blot"}, "GST-TTC9A (human)": {"biological_target": "GST-TTC9A (human) (UniProt Q92623)", "assay": "pull-down; GST-TTC9A or GST (60 ug; also 2 or 20 ug) immobilised on Glutathione Sepharose 4B; 300 ug lysate of transfected COS-7 cells, overnight at 4 C in PBS; anti-His blot; only the target purified"}, "[2]": {"biological_target": "T1, flag-TTC9A (1–95) (human) (UniProt Q92623)", "T1 sequence": "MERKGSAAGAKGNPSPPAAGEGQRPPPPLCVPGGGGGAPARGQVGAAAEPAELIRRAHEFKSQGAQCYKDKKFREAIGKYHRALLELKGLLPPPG", "assay": "co-IP; COS-7 cells co-transfected with flag-TTC9A or its fragments and Tm5NM-1-(His)6; 400 ug lysate on anti-flag M2 Affinity Gel overnight at 4 C; anti-His blot"}, "[3]": {"biological_target": "T2, flag-TTC9A (1–115) (human) (UniProt Q92623)", "T2 sequence": "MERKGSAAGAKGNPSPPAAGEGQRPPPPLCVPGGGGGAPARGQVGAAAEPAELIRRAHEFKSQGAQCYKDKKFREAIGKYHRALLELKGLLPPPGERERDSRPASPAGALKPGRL", "assay": "co-IP; COS-7 cells co-transfected with flag-TTC9A or its fragments and Tm5NM-1-(His)6; 400 ug lysate on anti-flag M2 Affinity Gel overnight at 4 C; anti-His blot"}, "[4]": {"biological_target": "T3, flag-TTC9A (1–128) (human) (UniProt Q92623)", "T3 sequence": "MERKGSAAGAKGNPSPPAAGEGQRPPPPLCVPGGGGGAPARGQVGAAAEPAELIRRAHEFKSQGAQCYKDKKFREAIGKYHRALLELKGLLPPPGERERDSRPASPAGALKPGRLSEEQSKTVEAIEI", "assay": "co-IP; COS-7 cells co-transfected with flag-TTC9A or its fragments and Tm5NM-1-(His)6; 400 ug lysate on anti-flag M2 Affinity Gel overnight at 4 C; anti-His blot"}, "[5]": {"biological_target": "T4, flag-TTC9A (1–100) (human) (UniProt Q92623)", "T4 sequence": "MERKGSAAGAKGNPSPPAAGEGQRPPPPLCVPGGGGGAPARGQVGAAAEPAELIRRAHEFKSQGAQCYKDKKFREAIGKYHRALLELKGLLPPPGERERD", "assay": "co-IP; COS-7 cells co-transfected with flag-TTC9A or its fragments and Tm5NM-1-(His)6; 400 ug lysate on anti-flag M2 Affinity Gel overnight at 4 C; anti-His blot"}, "[6]": {"biological_target": "TTC9A-flag (full length TTC9A) (human) (UniProt Q92623)", "assay": "co-IP; COS-7 cells co-transfected with flag-TTC9A or its fragments and Tm5NM-1-(His)6; 400 ug lysate on anti-flag M2 Affinity Gel overnight at 4 C; anti-His blot"}, "[7]": {"biological_target": "T5, flag-TTC9A (1–110) (human) (UniProt Q92623)", "T5 sequence": "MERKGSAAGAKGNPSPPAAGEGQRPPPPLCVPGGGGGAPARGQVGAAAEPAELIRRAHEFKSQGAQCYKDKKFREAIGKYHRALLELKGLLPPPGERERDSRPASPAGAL", "assay": "co-IP; COS-7 cells co-transfected with flag-TTC9A or its fragments and Tm5NM-1-(His)6; 400 ug lysate on anti-flag M2 Affinity Gel overnight at 4 C; anti-His blot"}, "[8]": {"biological_target": "T6, flag-TTC9A (1–70) (human) (UniProt Q92623)", "T6 sequence": "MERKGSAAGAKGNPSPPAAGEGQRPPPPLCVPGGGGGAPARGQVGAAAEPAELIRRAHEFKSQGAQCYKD", "assay": "co-IP; COS-7 cells co-transfected with flag-TTC9A or its fragments and Tm5NM-1-(His)6; 400 ug lysate on anti-flag M2 Affinity Gel overnight at 4 C; anti-His blot"}, "[9]": {"biological_target": "T7, flag-TTC9A (51–222) (human) (UniProt Q92623)", "T7 sequence": "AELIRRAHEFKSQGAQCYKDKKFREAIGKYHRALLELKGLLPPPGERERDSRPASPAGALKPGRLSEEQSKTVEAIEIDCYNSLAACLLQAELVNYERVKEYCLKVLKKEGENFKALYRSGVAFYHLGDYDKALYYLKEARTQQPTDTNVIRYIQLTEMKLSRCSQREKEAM", "assay": "co-IP; COS-7 cells co-transfected with flag-TTC9A or its fragments and Tm5NM-1-(His)6; 400 ug lysate on anti-flag M2 Affinity Gel overnight at 4 C; anti-His blot"}, "[10]": {"biological_target": "T8, flag-TTC9A (1–161) (human) (UniProt Q92623)", "T8 sequence": "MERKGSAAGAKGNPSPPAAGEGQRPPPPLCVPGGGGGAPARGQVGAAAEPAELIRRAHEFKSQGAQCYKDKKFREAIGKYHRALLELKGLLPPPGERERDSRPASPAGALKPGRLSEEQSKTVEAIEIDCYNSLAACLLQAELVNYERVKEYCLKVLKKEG", "assay": "co-IP; COS-7 cells co-transfected with flag-TTC9A or its fragments and Tm5NM-1-(His)6; 400 ug lysate on anti-flag M2 Affinity Gel overnight at 4 C; anti-His blot"}, "[11]": {"biological_target": "T9, flag-TTC9A (1–105) (human) (UniProt Q92623)", "T9 sequence": "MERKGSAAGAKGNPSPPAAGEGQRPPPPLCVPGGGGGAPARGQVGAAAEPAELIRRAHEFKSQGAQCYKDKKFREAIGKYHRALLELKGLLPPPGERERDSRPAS", "assay": "co-IP; COS-7 cells co-transfected with flag-TTC9A or its fragments and Tm5NM-1-(His)6; 400 ug lysate on anti-flag M2 Affinity Gel overnight at 4 C; anti-His blot"}, "[12]": {"biological_target": "T10, flag-TTC9A (51–115) (human) (UniProt Q92623)", "T10 sequence": "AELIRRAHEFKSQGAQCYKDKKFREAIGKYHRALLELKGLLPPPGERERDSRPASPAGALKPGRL", "assay": "co-IP; COS-7 cells co-transfected with flag-TTC9A or its fragments and Tm5NM-1-(His)6; 400 ug lysate on anti-flag M2 Affinity Gel overnight at 4 C; anti-His blot"}, "[13]": {"biological_target": "T11, flag-TTC9A (1–197) (human) (UniProt Q92623)", "T11 sequence": "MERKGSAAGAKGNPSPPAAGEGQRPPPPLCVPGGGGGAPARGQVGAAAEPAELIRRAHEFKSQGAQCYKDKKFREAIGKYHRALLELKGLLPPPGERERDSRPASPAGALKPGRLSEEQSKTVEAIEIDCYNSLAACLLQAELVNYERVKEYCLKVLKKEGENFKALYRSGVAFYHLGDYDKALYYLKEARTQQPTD", "assay": "co-IP; COS-7 cells co-transfected with flag-TTC9A or its fragments and Tm5NM-1-(His)6; 400 ug lysate on anti-flag M2 Affinity Gel overnight at 4 C; anti-His blot"}, "[14]": {"biological_target": "T12, flag-TTC9A (1–50) (human) (UniProt Q92623)", "T12 sequence": "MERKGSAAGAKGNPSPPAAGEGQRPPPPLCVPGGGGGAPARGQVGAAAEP", "assay": "co-IP; COS-7 cells co-transfected with flag-TTC9A or its fragments and Tm5NM-1-(His)6; 400 ug lysate on anti-flag M2 Affinity Gel overnight at 4 C; anti-His blot"}},
  "note": "Results are given in words; binding and its absence hold for the method and conditions named. In cells and extracts the contact can be indirect. Some entries that bind do so weakly or less than the wild type. For part of these data: Where a sequence is shown, tags or fusion partners need not be part of it.",
  "data": [
    {"substance": "TTC9A-flag (full length TTC9A) (from UniProt Q92623 1-222)", "values": [
      {"measurement": "binding", "setting": "[1]", "result": "binds"}
    ]},
    {"substance": "Tm5NM-1-(His)6 (from UniProt P06753-2 1-248)", "values": [
      {"measurement": "binding", "setting": "GST-TTC9A (human)", "result": "binds"},
      {"measurement": "binding", "setting": "[2]", "result": "binds"},
      {"measurement": "binding", "setting": "[3]", "result": "binds"},
      {"measurement": "binding", "setting": "[4]", "result": "binds"},
      {"measurement": "binding", "setting": "[5]", "result": "binds"},
      {"measurement": "binding", "setting": "[6]", "result": "binds"},
      {"measurement": "binding", "setting": "[7]", "result": "binds"},
      {"measurement": "binding", "setting": "[8]", "result": "no binding"},
      {"measurement": "binding", "setting": "[9]", "result": "no binding"},
      {"measurement": "binding", "setting": "[10]", "result": "binds"},
      {"measurement": "binding", "setting": "[11]", "result": "binds"},
      {"measurement": "binding", "setting": "[12]", "result": "binds"},
      {"measurement": "binding", "setting": "[13]", "result": "binds"},
      {"measurement": "binding", "setting": "[14]", "result": "no binding"}
    ]}
  ]
}
